The campaign covered roughly 390,000 compounds. About 2,200 (0.56%) were called active. Inconclusive means that the source gave no clear call. Such entries were picked first, then a sample of the others. Calls follow the shape of the dose curve; as a rule, active = well fitted inhibition curve with a large enough effect; inconclusive = small, poorly fitted or top-dose-only effect; inactive = no such curve, though single readings can be large or run the other way. Where the call is inconclusive, the potency comes from a doubtful curve fit.
The compounds below were run against Chromobox protein homolog 1 (Homo sapiens) (UniProt P83916) (assay: HTS for Inhibitors of HP1-beta Chromodomain Interactions with Methylated Histone Tails). Conditions: AlphaScreen HP1-beta / biotin-H3K9me3 peptide binding; series mostly up to 114 µM.
Sequence of UniProt P83916 (P83916 whole entry, looked up): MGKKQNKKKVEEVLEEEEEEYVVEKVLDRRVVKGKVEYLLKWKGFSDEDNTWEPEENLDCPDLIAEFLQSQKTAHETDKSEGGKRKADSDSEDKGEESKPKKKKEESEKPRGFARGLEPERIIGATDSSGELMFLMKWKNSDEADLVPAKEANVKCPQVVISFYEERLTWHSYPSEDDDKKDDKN
Procedure, shortened: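 Compound inhibition of the preformed complex between 50 nM HP1-beta and 50 nM biotinylated H3K9me3 peptide was read by AlphaScreen. Buffer was PBS pH 7.4 with 0.01% Tween-20. Incubations ran 30 min at room temperature, with 10 ug/mL donor/acceptor beads.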
Also: nearly all actives have a fitted effect of over 70% in size.
Potency is read from the fitted curve at half-maximal effect; tags tell the direction and shape of the fitted curve.

SMILES	Potency
O=[N+]([O-])c1ccccc1/C=N\N1CCN(Cc2ccccc2Cl)CC1	inconclusive: 14.1 µM [inhibitor, full curve]
COc1ccc(OCCOCCN2CCc3ccccc3C2)cc1	inconclusive: 22.4 µM [inhibitor, partial curve, poor fit]
COc1ccc(CCNC(=O)CSc2nnc(CNC(=O)c3cc(OC)c(OC)c(OC)c3)o2)cc1OC	inactive
O=[N+]([O-])c1c(NCCO)cc(Sc2nc3ccccc3s2)c2nonc12	inconclusive: 22.4 µM [inhibitor, full curve]
COCCCNC(=O)c1cc2c(=O)oc3ccc(C)cc3c2s1	inactive
Cc1nc(C)c(C(=O)OCC(=O)Nc2cccc(C)c2C)s1	inactive
Cc1ccc(-n2c(C)cc(/C=N/NC(=O)CC3(C)OCCO3)c2C)c(C)c1	inactive
O=C(NCc1ccncc1)c1cc2ccccc2nc1Cl	inactive
COc1cc(OC)c(NC2(c3ccccc3)C(=O)c3ccccc3C2=O)cc1Cl	inconclusive: 20 µM [inhibitor, full curve]
CCn1c2ccccc2c2cc(CN3CCN(Cc4ccccc4Cl)CC3)ccc21	inconclusive: 12.6 µM [inhibitor, partial curve, poor fit]
Cc1cc(C)n2nc(C(=O)NCc3ccccc3)nc2n1	inactive
O=C(O)C1CCCCN1C(=O)c1cc2c(s1)CCCCC2 (centres undefined)	inactive
O=C(/C(=N\Nc1ccc([N+](=O)[O-])cc1)Sc1nnnn1-c1ccccc1)c1ccccc1	inconclusive: 31.6 µM [inhibitor, single point]
COc1ccc(CC(=O)OCC(=O)NC(=O)NC(C)C)cc1	inactive
Cc1cc(F)ccc1NCc1ccccc1[N+](=O)[O-]	inconclusive: 44.7 µM [inhibitor, partial curve]
CCCCNC(=O)N1CCc2ccccc2C1	inconclusive: 39.8 µM [inhibitor, single point]
O=C(CSc1ncc(-c2ccccc2)n1-c1ccccc1)NCc1ccco1	inconclusive: 22.4 µM [inhibitor, partial curve, poor fit]
O=C(COC(=O)CCc1ccc(S(=O)(=O)N2CCOCC2)cc1)Nc1ccccc1[N+](=O)[O-]	inconclusive: 70.8 µM [inhibitor, partial curve]
Cc1ccc(/C=N/n2c(-c3ccco3)n[nH]c2=S)cc1	active: 56.2 µM
O=C(O)c1ccc(Cl)c(S(=O)(=O)Nc2ccc(S(=O)(=O)N3CCCC3)cc2)c1	inactive
COCCNC(=O)c1ccccc1N(Cc1ccccc1)S(=O)(=O)c1ccc(C)cc1	inactive
O=Cc1cn(CC(=O)N2CCCc3ccccc32)c2ccccc12	inconclusive: 6.31 µM [inhibitor, single point]
COc1ccccc1/C=C1\SC(=S)N(CCC(=O)NCCCN2CCOCC2)C1=O	inconclusive: 70.8 µM [inhibitor, partial curve]
CCN1CCN(c2oc(-c3ccc(COc4ccc(C)cc4)o3)nc2C#N)CC1	inconclusive: 14.1 µM [inhibitor, full curve]
O=C(O)c1cc(N/N=C/c2ccc(-c3ccccc3)cc2)ccc1Cl	inactive

SMILES	Potency
CC1CCN(c2ccc([N+](=O)[O-])cc2C(=O)O)CC1	inconclusive: 31.6 µM [inhibitor, single point]
Cc1cccc(N2C(=O)c3cccc4c(N5CCCCC5)c([N+](=O)[O-])cc(c34)C2=O)c1C	inconclusive: 11.2 µM [inhibitor, partial curve, poor fit]
O=C(O)c1ccc(COc2ccccc2/C=C2\NC(=O)N(Cc3ccccc3)C2=O)cc1	inconclusive: 35.5 µM [inhibitor, full curve]
O=C(/C=C/c1ccncc1)c1cc(Cl)ccc1O	inconclusive: 50.1 µM [inhibitor, partial curve]
CCOC(=O)c1c(-c2ccccc2)csc1NC(=O)c1cc(-c2ccc(Br)cc2)on1	inconclusive: 5.01 µM [inhibitor, full curve]
COc1ccccc1/C=C/C1=NC(=C\C=C/c2ccccc2)/C(=O)O1	inconclusive: 22.4 µM [inhibitor, partial curve, poor fit]
CC(=O)c1ccc(OCCCC(=O)Nc2nnc(C3CC3)s2)cc1	inactive
Fc1ccc(OCCn2cnc(Cl)c2Cl)cc1	inactive
c1ccc(CCCN2CCN(c3ccccn3)CC2)cc1	inconclusive: 22.4 µM [inhibitor, partial curve]
Cc1ccc(C(=O)NCC(=O)OCC(=O)c2cc(C)n(Cc3ccco3)c2C)cc1	inconclusive: 17.8 µM [inhibitor, full curve]
COC(=O)C1=C[C@@H](C(=O)OC)C2C3=C(C(=O)[C@@]2(C)NC(=O)c2ccccc2)[C@H](C)n2c(=O)n(C)c(=O)n2[C@@H]3C1 (some centres undefined)	inactive
CCOCCCNCC(=O)NCC1CCCCC1	inconclusive: 28.2 µM [inhibitor, partial curve]
Cc1[nH][nH]c(=O)c1C(c1ccc(-c2ccc(C(=O)O)cc2)o1)c1c(C)[nH][nH]c1=O	inconclusive: 79.4 µM [inhibitor, partial curve, poor fit]
COc1ccc(/C=C2\SC(=S)N(CCC(=O)N(CCO)Cc3ccccc3)C2=O)cc1OC	inactive
COc1cccc(C2=Nn3c(nnc3-c3ccccc3O)SC2)c1	inconclusive: 12.6 µM [inhibitor, partial curve, poor fit]
CC1C(=O)C(C)(C)C(=O)OC1c1ccccc1 (centres undefined)	inactive
COc1ccc(NC(=O)CSc2nc(SC)ns2)cc1	inactive
COc1ccc(C(NCC(=O)Nc2c(C)cccc2C)c2ccccc2)cc1 (centres undefined)	active: 28.2 µM
COc1cc(NC(=O)c2ccccn2)cc(OC)c1OC	inconclusive: 7.94 µM [inhibitor, full curve]
O=C(COC(=O)c1ccccc1O)Nc1ccc(S(=O)(=O)N2CCCCC2)cc1	inactive
O=C(/C=C/c1cccs1)c1cc(Cl)ccc1O	inconclusive: 14.1 µM [inhibitor, full curve]
COCCNC(=S)N1CCN(C)CC1	inconclusive: 22.4 µM [inhibitor, full curve]
Cc1cc(/C=N/NC(=O)c2cccc(F)c2)c(C)n1-c1ccccc1	inactive
CCCCOc1ccc(N=Nc2ccc(N)nc2N)cn1	inconclusive: 28.2 µM [inhibitor, partial curve]
COc1cc(OC)c(NC(=O)N2CC3CCCN3c3ccccc32)cc1Cl (centres undefined)	inconclusive: 17.8 µM [inhibitor, full curve]

SMILES	Potency
Cc1ccc2sc(C)[n+](CCO)c2c1	inactive
CCOc1cc(/C=N/Nc2nncc(-c3ccccc3)n2)ccc1O	inconclusive: 39.8 µM [inhibitor, full curve]
CCCOc1ccc(-c2nc(C#N)c(N3CCN(CC)CC3)o2)cc1	active: 50.1 µM
Cc1ccc(C(=O)Nc2ccc(C(=O)N/N=C/c3cccnc3)cc2)cc1	inconclusive: 50.1 µM [inhibitor, partial curve]
CCN1/C(=C/C(C)=C/c2sc3ccccc3[n+]2CC)Sc2ccccc21	inconclusive: 28.2 µM [inhibitor, full curve]
Cc1ccc(CNc2ccc3c(c2)OCO3)cc1	inactive
CC1(C)CC(=O)C/C(=N\NC(=O)c2cccs2)C1	inconclusive: 39.8 µM [inhibitor, single point]
O=C(c1ccco1)N1CCN(C(=O)c2cnn3c2NC(c2cccs2)CC3C(F)(F)F)CC1 (centres undefined)	inactive
C=CCn1c(C)cc(-c2csc(NCC)n2)c1C	inconclusive: 15.8 µM [inhibitor, full curve]
CC(C)(C)C(=O)NC(=S)Nc1cccc(C(=O)O)c1	inactive
C=CCn1c(N)c(C(=O)NC2CCCCC2)sc1=S	inactive
Cc1sc(NC(=O)/C=C/c2ccco2)c(C(=O)O)c1C	inactive
Cc1ccc(S(=O)(=O)N(C)C)cc1NC(=S)NC(=O)C12CC3CC(CC(C3)C1)C2	inconclusive: 28.2 µM [inhibitor, single point]
O=[N+]([O-])c1ccc(N2CCCC2)cc1N1CCCC1	active: 15.8 µM
CCN(CC)S(=O)(=O)c1ccc(N2CCN(c3cccc(OC)c3)CC2)c([N+](=O)[O-])c1	inconclusive: 1.41 µM [inhibitor, full curve, poor fit]
N#Cc1nc(COc2ccccc2Cl)oc1NCc1ccco1	inconclusive: 31.6 µM [inhibitor, partial curve]
O=C(CCn1cccc1)NCc1ccc2c(c1)OCO2	inconclusive: 79.4 µM [inhibitor, partial curve, poor fit]
COc1ccc(C2CC(=O)n3nc(C45CC6CC(CC(C6)C4)C5)nc3S2)cc1OC (centres undefined)	inactive
Cc1ccc(NC(=O)CN2CCN(C)CC2)cc1Br	inconclusive: 14.1 µM [inhibitor, partial curve, poor fit]
CCOc1ccccc1C=NN1CCCCCC1	inconclusive: 56.2 µM [inhibitor, single point]
COC(=O)c1ccccc1NC(=O)c1noc2c1CCCC2	inactive
COc1cccc(-c2nc(S(=O)(=O)c3ccc(Cl)cc3)c(NCc3ccccc3)o2)c1	inactive
O=C1c2sc3nc4ccccc4n3c2C(=O)N1c1ccccc1Cl	inconclusive: 39.8 µM [inhibitor, partial curve, poor fit]
COc1ccc(S(=O)(=O)Nc2ccccc2OC)cc1NC(=O)Cc1cccs1	inconclusive: 39.8 µM [inhibitor, single point]
